The values below are quoted from earlier work in patent publication US7605135B2 (priority 2003, dated 2009).

For the data set the following is noted: boiling temperature (a typical extraction method); cited from earlier work.

For the substance baicalin, the Thermal stability entry was “Stable at boiling temperature (a typical extraction method) [Han RJ et al.,”.
